Out of some 130,000 compounds screened, about 550 (0.42%) were called active. The inconclusive results got no clear call from the source; some entries with a clear call stand among them for comparison. Calls follow the shape of the dose curve; as a rule, active = well fitted inhibition curve with a large enough effect; inconclusive = small, poorly fitted or top-dose-only effect, or effect the other way; inactive = flat fitted curve, though single readings scatter. No potency is given beside an inconclusive call; the fits are too rough.
experiment: qHTS Assay for Inhibitors of the ERK Signaling Pathway using a Homogeneous Screening Assay; Stimulation with EGF; conditions: HEK293-V1b, EGF-stimulated phospho-ERK AlphaScreen; also: nearly all actives have a fitted effect of over 55% in size
Summary of the method: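 Cell line HEK293 (stable V1b), low serum overnight. Pretreatment: compound 30 min, 37C. EGF 25 nM, 5 min. Detection: SureFire AlphaScreen, 5 h RT. AC50 via standard Hill equation.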
Potency is read from the fitted curve at half-maximal effect; tags tell the direction and shape of the fitted curve.

Structure (SMILES) | Potency
CC(=O)Nc1ccc(SCC(=O)c2cc(C)n(-c3ccccc3F)c2C)cc1 | inconclusive [inhibitor, single point]
N#CC(C#N)=C1C=C2C=C(N3CCCCCC3)CCC2CC1 (stereo not given) | inconclusive [activator, partial curve]
CCOC(=O)c1oc2ccc(S(=O)(=O)n3nc(-c4ccc(OC)cc4)cc3N)cc2c1C | inactive
CCSc1ccccc1C(=O)N1CCN(c2ccc([N+](=O)[O-])cc2)CC1 | inactive
CCOC(=O)c1ccc(NC(=O)c2ccc(OC(C)C)c(OC)c2)cc1 | inconclusive [inhibitor, single point]
NCCCC[C@@H]1NC(=O)[C@H](CCC(=O)O)NC(=O)c2cc([N+](=O)[O-])cc(I)c2NCC[C@@H](C(N)=O)NC1=O | inconclusive [inhibitor, partial curve]
Brc1ccc(CSc2ccc3nnc(-c4cccnc4)n3n2)cc1 | inconclusive [inhibitor, single point]
C/C(=N\Nc1ccc(S(N)(=O)=O)cc1[N+](=O)[O-])c1ccc2c(c1)OCO2 | inconclusive [inhibitor, partial curve]
CN(C)c1ccc(-c2ccc3ncnc(NCc4ccccc4)c3c2)cc1 | active: 8.91 µM
CCNc1ccc(S(=O)(=O)N(C)C)cc1NCC(=O)Nc1ccc(F)c(Cl)c1 | inconclusive [inhibitor, single point]
O=C(N/N=C/c1sc(N2CCOCC2)nc1-c1ccccc1)c1ccccc1O | inconclusive [inhibitor, single point]
O=C(Nc1ccc(Cl)cc1)N1CCN(Cc2ccc3c(c2)OCO3)CC1 | inconclusive [inhibitor, single point]
CN1CCN(c2ccc(NC(=O)COc3ccccc3[N+](=O)[O-])cc2)CC1 | inactive
O=[N+]([O-])c1ccc(C2CC(c3ccccc3)=Nc3ccccc3S2)cc1 (stereo not given) | inconclusive [inhibitor, partial curve, poor fit]
CC(NCC1(N2CCOCC2)CCCCC1)C(=O)Nc1ccc(Cl)cc1Cl (stereo not given) | inactive
COc1cc(NC(=O)Nc2cccc([N+](=O)[O-])c2)cc(OC)c1 | inconclusive [inhibitor, partial curve]
CCn1cc(C2=NC(CC(C)C)CO2)c2ccccc21 (stereo not given) | inconclusive [inhibitor, full curve, poor fit]
O=Nc1c(O)n(Cc2c(Cl)cccc2Cl)c2ccccc12 | inconclusive [inhibitor, single point]
CCOC(=O)c1c(C)c(-c2ccccc2)n(CC(=O)NCCCN(CC)CC)c1C | inconclusive [inhibitor, single point]
CCOC(=O)C(C)Sc1nnc(NC(=O)c2ccc3c(c2)OCO3)s1 (stereo not given) | inconclusive [activator, full curve]

Structure (SMILES) | Potency
Cc1cccc(Nc2c([N+](=O)[O-])cc(C(=O)N3CC(=O)Nc4ccccc43)cc2[N+](=O)[O-])c1 | inconclusive [inhibitor, single point]
Cc1ccc(OCC(=O)c2cc(C)n(Cc3ccco3)c2C)c([N+](=O)[O-])n1 | inconclusive [inhibitor, partial curve]
Cc1ccc(NC(=O)O/N=C/c2c(C)nn(C(C)(C)C)c2C)cc1Cl | inconclusive [inhibitor, single point]
COc1ccc(-n2c(/C=C3\C(=O)N(C)c4ccccc43)nc3ccccc3c2=O)cc1 | inconclusive [inhibitor, partial curve]
O=CC1=C(N2CCOCC2)/C(=C/c2ccc(Cl)cc2)CC1 | inconclusive [inhibitor, full curve, poor fit]
COC(=O)[C@@H]1C[C@@]1(C)[C@@H](NC(=O)OCc1ccccc1)c1ccccc1 | inactive
COc1cc2c(cc1OC)-c1c(OC)c(OC)cc3ccnc(c13)C2=O | inconclusive [inhibitor, single point]
CN(C)c1ccc(-c2nc3ccccn3c2/N=C/c2ccc(Br)cc2)cc1 | inconclusive [inhibitor, partial curve]
Cc1cc(C)n(-c2ccc(C(=O)Nc3ccc(C)c(S(=O)(=O)N(C)C)c3)cc2)n1 | inconclusive [inhibitor, single point]
O=C1/C(=C/c2cccnc2)CCc2c1[nH]c1ccccc21 | inconclusive [inhibitor, single point]
CC1CCC(NC(=O)COc2ccc(C(=O)c3ccccc3)cc2)CC1 (stereo not given) | inconclusive [inhibitor, single point]
Cc1ccc(-n2nc(C)c(/C=N/NC(=O)c3cccs3)c2Cl)cc1 | inconclusive [inhibitor, single point]
CN1c2ccsc2/C(=N/Nc2ccc(F)cc2)CS1(=O)=O | inconclusive [inhibitor, partial curve]
C(=C\c1ccco1)/C1=NN(c2ccccc2)C(c2ccco2)C1 (stereo not given) | inconclusive [activator, partial curve]
CNS(=O)(=O)c1ccc2c(c1)oc(=O)c1cc(S(=O)(=O)NC)ccc12 | inconclusive [inhibitor, single point]
Cc1ccc2c(c1)nnn2C1CCN(S(=O)(=O)c2ccc(C(=O)O)cc2)CC1 | inactive
C[C@H]1/C=C\CC(=O)NCc2cccc(c2)CNC(=O)N[C@H]1c1ccccc1 | inactive
S=c1[nH]c(-c2ccccc2)cn1/N=C/c1ccc(Br)cc1 | inconclusive [inhibitor, single point]
COCCn1c(SCC(=O)Nc2ccc3c(c2)OCCO3)nc2c(c1=O)SC(C)C2 (stereo not given) | inconclusive [activator, full curve, poor fit]
CC(/C=C1\SC(=S)N(CCCC(=O)Nc2ccc(C(=O)O)c(O)c2)C1=O)=C\c1ccccc1 | inconclusive [inhibitor, single point]

Reference: PubChem BioAssay AID1454 (National Center for Advancing Translational Sciences (NCATS), 2008)
